Screen size: about 3,200 compounds; about 300 (9.4%) showed activity. The list shows a part of the results, in another mix than the full data.
Test system: A673/TR/shEF
Test: cell viability (LOESS-normalised, relative to median of negative controls) (log2 ratio); higher = more viable cells (less compound effect), active = hit call of the paper (over 3 MAD below the median)
Conditions: treatment time: 72 h
Procedure, shortened: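 Viability of A673/TR/shEF Ewing sarcoma cells was determined by CellTiter-Glo luminescence. The cells, at 1,500 per well in 384-well plates, were grown with or without doxycycline from 24 h before compound addition to switch on EWS-FLI1 shRNA knockdown, then exposed for three days to library compounds at two or more concentrations or to DMSO controls. Signals were LOESS-corrected plate by plate, normalised to the negative-control median and log2-transformed.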

[1] = 0.25 µM, library screen: screen1, EWS-FLI1 expression: high (no doxycycline)
[2] = 0.25 µM, library screen: screen1, EWS-FLI1 expression: low (doxycycline-induced shRNA knockdown)
[3] = 0.25 µM, library screen: screen2, EWS-FLI1 expression: high (no doxycycline)
[4] = 0.25 µM, library screen: screen2, EWS-FLI1 expression: low (doxycycline-induced shRNA knockdown)
[5] = 2.5 µM, library screen: screen1, EWS-FLI1 expression: high (no doxycycline)
[6] = 2.5 µM, library screen: screen1, EWS-FLI1 expression: low (doxycycline-induced shRNA knockdown)
[7] = 2.5 µM, library screen: screen2, EWS-FLI1 expression: high (no doxycycline)
[8] = 2.5 µM, library screen: screen2, EWS-FLI1 expression: low (doxycycline-induced shRNA knockdown)

Measured: cell viability (log2)

CCCCCCCCC(=O)NCc1ccc(O)c(OC)c1
inactive: [1] 0.0243 | [2] 0.0218 | [3] 0.196 | [4] 0.0548 | [5] 0.0338 | [6] 0.0518 | [7] 0.0799 | [8] 0.0818

NCCc1c[nH]c2ccc(C(N)=O)cc12
inactive: [3] 0.189 | [4] 0.0794 | [7] 0.175 | [8] 0.145

O=S1(=O)N(CCN2CC=C(c3c[nH]c4cc(F)ccc34)CC2)c2cccc3c2N1CCC3
inactive: [3] 0.126 | [4] 0.117 | [7] 0.118 | [8] 0.102

N#CC(C#N)=Cc1ccc([N+](=O)[O-])c(O)c1
inactive: 0.025 µM, library screen: screen1, EWS-FLI1 expression: low (doxycycline-induced shRNA knockdown) 0.0132 | [2] -0.0619 | [3] 0.0683 | [4] 0.016
0.298: 0.025 µM, library screen: screen1, EWS-FLI1 expression: high (no doxycycline)
active: [5] -0.131 | [6] -0.169 | [7] -0.559 | [8] -0.298 | 25 µM, library screen: screen1, EWS-FLI1 expression: high (no doxycycline) -0.408 | 25 µM, library screen: screen1, EWS-FLI1 expression: low (doxycycline-induced shRNA knockdown) -0.158
0.311: [1]

Clc1ccc(N2CCN(Cc3c[nH]c4ncccc34)CC2)cc1
inactive: [3] 0.202 | [4] 0.143 | [7] 0.163 | [8] 0.0993

CCn1cnc2c(Nc3cccc(Cl)c3)nc(N[C@@H]3CCCC[C@@H]3N)nc21
active: [7] -0.199
inactive: [3] 0.222 | [4] 0.14 | [8] -0.0222

NCCCNCCSP(=O)(O)O
inactive: [1] 0.0926 | [2] 0.068 | [3] 0.139 | [4] 0.0376 | [5] 0.0754 | [6] 0.129 | [7] 0.152 | [8] 0.065

CN1CCN(c2ccc3ccccc3n2)CC1
inactive: [3] 0.212 | [4] 0.03 | [7] 0.14 | [8] 0.0523

O=[N+]([O-])c1ccc(O)c([N+](=O)[O-])c1
inactive: [1] -0.0465 | [2] 0.0423 | [5] 0.0707 | [6] 0.0257

COc1cc(C(=O)O)cc(OC)c1OC
inactive: [1] 0.0772 | [2] 0.104 | [5] 0.159 | [6] 0.0844

COC1=C[C@]23CCCN2CCc2cc4c(cc2[C@@H]3[C@@H]1O)OCO4
inactive: [1] 0.0464 | [2] 0.0537 | [5] 0.119 | [6] 0.159

CNC(C)(C)Cc1ccccc1
inactive: [1] 0.116 | [2] 0.123 | [5] 0.156 | [6] 0.0873

CCOP(=S)(OCC)Oc1cc(C)nc(C(C)C)n1
inactive: [1] 0.0406 | [2] 0.0346 | [5] 0.11 | [6] 0.125

C[C@]12CCC(=O)C(O)=C1CC[C@@H]1[C@@H]2CC[C@]2(C)C(=O)CC[C@@H]12
inactive: 0.025 µM, library screen: screen2, EWS-FLI1 expression: high (no doxycycline) 0.156 | 0.025 µM, library screen: screen2, EWS-FLI1 expression: low (doxycycline-induced shRNA knockdown) 0.108 | [1] -0.025 | [2] -0.0184 | [3] 0.125 | [4] 0.0758 | [5] 0.0197 | [6] -0.0205 | [7] 0.0374 | [8] 0.0442 | 25 µM, library screen: screen2, EWS-FLI1 expression: high (no doxycycline) 0.0777 | 25 µM, library screen: screen2, EWS-FLI1 expression: low (doxycycline-induced shRNA knockdown) 0.0432

c1ccc(C2CC2)c(OCC2=NCCN2)c1
inactive: [3] 0.106 | [4] 0.0539 | [7] 0.0546 | [8] 0.0982

NCC(CP(=O)(O)O)c1ccc(Cl)cc1 (centres undefined)
inactive: [3] 0.17 | [4] 0.0448 | [7] 0.0538 | [8] 0.0365

N[C@@H](Cn1cc(I)c(=O)[nH]c1=O)C(=O)O
inactive: [3] 0.182 | [4] 0.0737 | [7] 0.187 | [8] 0.102

CNCC(O)c1ccc(O)cc1 (centres undefined)
inactive: [3] 0.178 | [4] 0.0955 | [7] 0.284 | [8] 0.0791

c1ccc(CCCN2CCN(CCOC(c3ccccc3)c3ccccc3)CC2)cc1
inactive: [3] 0.112 | [4] 0.0353 | [7] 0.143 | [8] 0.0218

CC(C)C[C@H]1C(=O)N2CCC[C@H]2[C@]2(O)O[C@](NC(=O)[C@@H]3C=C4c5cccc6[nH]c(Br)c(c56)C[C@H]4N(C)C3)(C(C)C)C(=O)N12
inactive: [1] 0.176 | [2] 0.159 | [3] 0.161 | [4] 0.0412 | [5] 0.154 | [6] 0.233 | [7] 0.0606 | [8] 0.00537

O=C(OC1CCN(CCCl)CC1)C(c1ccccc1)c1ccccc1
inactive: [3] 0.22 | [4] 0.133 | [7] 0.106 | [8] 0.137

CNC(=O)OCC[N+](C)(C)C
inactive: [3] 0.115 | [4] 0.0935 | [7] 0.161 | [8] 0.0965

NCC(=O)c1ccccc1
inactive: [1] 0.0631 | [2] 0.0462 | [5] 0.0615 | [6] -0.00509

CC1(C)C2CC(=O)[C@]3(C)C(CC[C@@]4(C)[C@H](c5ccoc5)OC(=O)[C@H]5O[C@]543)[C@@]2(C)C(=O)C[C@H]1O (some centres undefined)
inactive: [1] 0.131 | [2] 0.0332 | [5] 0.0509 | [6] 0.0814

CP(=O)(O)CCCN
inactive: [3] 0.156 | [4] 0.102 | [7] 0.0718 | [8] 0.0598

C=C(C)C(=O)/C(=C\C(=O)O)OC
inactive: [1] 0.0761 | [2] 0.0593 | [5] 0.138 | [6] 0.0173

COC[C@]12CN(C=O)[C@H]3C4[C@H](OC)[C@H]1C3([C@@H](OC)C[C@H]2O)[C@@H]1C[C@@]2(O)[C@H](OC(=O)c3ccccc3)[C@@H]1[C@]4(OC(C)=O)[C@@H](O)[C@@H]2OC
inactive: [1] 0.0391 | [2] 0.0831 | [5] 0.0466 | [6] 0.114

Cc1o[nH]c(=O)c1CC(N)C(=O)O (centres undefined)
inactive: [3] 0.115 | [4] 0.0119 | [7] 0.0854 | [8] 0.0272

CCN(CCCl)Cc1ccccc1Br
inactive: [3] 0.131 | [4] 0.125 | [7] 0.11 | [8] 0.0132

Reference: the supplement of paper PMC6089552
